{"source": "paper PMC12259270", "about": "“Sensory neuron–expressed FGF13 controls nociceptive signaling in diabetic neuropathy models” (The Journal of Clinical Investigation, 2025)", "system": "Na+ currents in hIPSC-derived sensory neurons (RealDRG)", "experiment": "Whole-cell voltage clamp, hIPSC-derived sensory neurons (RealDRG) with Nav1.7 blocker ProTx-II", "format": "cell-based, human", "method": "Next, we conducted whole-cell patch-clamp electrophysiological recordings in hIPSC-derived sensory neurons under three conditions: unstimulated and treated with 0.07% ethanol (capsaicin vehicle), treated with capsaicin (100 nM, 10 minutes), and treated with capsaicin plus SB-366791 (10 μM), a selective TRPV1 inhibitor. Each group was exposed to either vehicle (0.01% DMSO) or PW164 (50 μM), with all recordings performed in the presence of the Nav1.8 blocker A-803467 (300 nM) ([41]). The experimental groups are color coded in Figure 2A. Capsaicin caused potentiation of INa (Figure 2A) and induced hyperpolarizing shifts in the V1/2 of activation (Figure 2B) and SSI (Figure 2C). […] Next, we investigated whether silencing FGF13 could replicate PW164’s effects and prevent additional activity of the compound. hIPSC-derived sensory neurons were transfected with a previously validated pAAV-shFGF13-GFP construct ([42]) (Supplemental Figure 8). […] Neither PW164 nor FGF13 silencing affected Na+ currents in neurons transfected with pAAV-shCTRL-GFP or pAAV-shFGF13-GFP, whether unstimulated or treated with capsaicin in the presence of ProTx II (Supplemental Figure 9 and Supplemental Table 6). Thus, PW164 selectively modulated FGF13-dependent Na^+ current sensitization via TRPV1, with FGF13 silencing mimicking and validating PW164’s effect. […]\nWhole-cell patch clamp electrophysiology\nHEK293-Nav1.7 cells, HEK293 stably expressing human Nav1.6 (HEK-Nav1.6), HEK293 stably expressing human Nav1.5 (HEK-Nav1.5), human hIPSC-derived sensory neurons (RealDRGTM from Anatomic Incorporated 1020F1-1M) and donor-derived DRG neurons were plated at low density on glass coverslips and processed for whole-cell patch clamp electrophysiology in voltage-clamp and/or current clamp mode. Whole-cell patch electrophysiological experiments were conducted following previously published studies (26). Current densities were obtained by dividing INa amplitude by membrane capacitance. Current –voltage relationships were generated by plotting current density as a function of the […]. Conductance (G Na) was calculated by the […]\nwhere INa is the current amplitude at voltage Vm, and Erev is the Na+ reversal potential.\nActivation curves were derived by plotting normalized GNa as a function of test potential and fitted using […]\nWhere GNa,Max is the maximum conductance, Va is the membrane potential of half-maximal activation, Em is the membrane voltage and k is the slope factor. For steady -state inactivation, normalized current amplitude (INa/INa,Max) at the test potential was plotted as a function of prepulse potential (Vm) and fitted using the […]\nWhere Vh is the potential of half-maximal inactivation, E m is the membrane voltage, and k is the slope factor.\nTransient INa inactivation decay was estimated with the standard exponential equation. Inactivation time constant (tau, τ) was fitted with the following equation: […]\nwhere I(t) is the amplitude of the current at time t and Iss is the steady-state current during a single voltage-step.\nThe goodness of fitting was determined by correlation coefficient (R), and the cutoff of R was set at 0.85. To observe effects on long-term inactivation (LTI), a four-step protocol was employed during which cells were subjected to four 0 mV, 20 ms depolarization pulses separated by −90 mV, 40 ms recovery intervals. To control for various cell sizes, the current densities were calculated by dividing INa peak current amplitude/membrane capacitance (Cm). To represent the fraction of channels entering into LTI, the peak INa observed during depolarization cycles 2-4 was normalized to the peak INa observed during depolarization cycle 1 (INa/INa,Cycle 1) and plotted as a function of the depolarization cycle.\nThe cumulative (frequency-dependent) use-dependency was determined by applying 20 pulses with a depolarization to −10 mV (50 ms duration) and 50 ms recovery intervals with a train of 20 pulses at 10 Hz from a holding potential at -70 mV. […]", "note": "Entries with a single value are a further part of the results. Residues, ends and D or L forms follow the SMILES beside them. *: point of attachment. NHPh = c1ccc(N*)cc1"}
{"smiles": "CC(=O)N[C@@H](Cc1ccccc1)C(=O)N[C@@H](CC(C)C)C(=O)N1CCC[C@H]1C(=O)N[C@@H](CCCCN)C(=O)Nc1ccccc1", "note": "[ZL192] (Ac-FLPK-NHPh)", "values": [{"measurement": "Long-term inactivation, 2nd pulse (% of maximal Na+ current)", "setting": "Control cells, 3rd pulse", "value": 99.176}, {"measurement": "Long-term inactivation, 2nd pulse (% of maximal Na+ current)", "setting": "Control cells, 4th pulse", "value": 98.9578}, {"measurement": "Long-term inactivation, 2nd pulse (% of maximal Na+ current)", "setting": "Naive cells, 3rd pulse", "value": 100.382}, {"measurement": "Long-term inactivation, 2nd pulse (% of maximal Na+ current)", "setting": "Naive cells, 4th pulse", "value": 100.457}, {"measurement": "Long-term inactivation, 2nd pulse (% of maximal Na+ current)", "setting": "ShFGF13 cells, 3rd pulse", "value": 97.2554}, {"measurement": "Long-term inactivation, 2nd pulse (% of maximal Na+ current)", "setting": "ShFGF13 cells, 4th pulse", "value": 99.2296}]}
